According to publication PMC4336329 (PLoS ONE, 2015):
Among all 310,000 compounds or so, about 2,200 (0.71%) showed an effect of 50% or more. Effects have a minus sign here. The list shows a part of the results.

These compounds were tested against human ether-à-go-go-related gene (hERG) potassium channel (human, UniProt Q12809) (assay: primary screen, population patch clamp on CHO cells stably expressing hERG).
Chain of human ether-à-go-go-related gene (hERG) potassium channel (Q12809 whole entry, looked up): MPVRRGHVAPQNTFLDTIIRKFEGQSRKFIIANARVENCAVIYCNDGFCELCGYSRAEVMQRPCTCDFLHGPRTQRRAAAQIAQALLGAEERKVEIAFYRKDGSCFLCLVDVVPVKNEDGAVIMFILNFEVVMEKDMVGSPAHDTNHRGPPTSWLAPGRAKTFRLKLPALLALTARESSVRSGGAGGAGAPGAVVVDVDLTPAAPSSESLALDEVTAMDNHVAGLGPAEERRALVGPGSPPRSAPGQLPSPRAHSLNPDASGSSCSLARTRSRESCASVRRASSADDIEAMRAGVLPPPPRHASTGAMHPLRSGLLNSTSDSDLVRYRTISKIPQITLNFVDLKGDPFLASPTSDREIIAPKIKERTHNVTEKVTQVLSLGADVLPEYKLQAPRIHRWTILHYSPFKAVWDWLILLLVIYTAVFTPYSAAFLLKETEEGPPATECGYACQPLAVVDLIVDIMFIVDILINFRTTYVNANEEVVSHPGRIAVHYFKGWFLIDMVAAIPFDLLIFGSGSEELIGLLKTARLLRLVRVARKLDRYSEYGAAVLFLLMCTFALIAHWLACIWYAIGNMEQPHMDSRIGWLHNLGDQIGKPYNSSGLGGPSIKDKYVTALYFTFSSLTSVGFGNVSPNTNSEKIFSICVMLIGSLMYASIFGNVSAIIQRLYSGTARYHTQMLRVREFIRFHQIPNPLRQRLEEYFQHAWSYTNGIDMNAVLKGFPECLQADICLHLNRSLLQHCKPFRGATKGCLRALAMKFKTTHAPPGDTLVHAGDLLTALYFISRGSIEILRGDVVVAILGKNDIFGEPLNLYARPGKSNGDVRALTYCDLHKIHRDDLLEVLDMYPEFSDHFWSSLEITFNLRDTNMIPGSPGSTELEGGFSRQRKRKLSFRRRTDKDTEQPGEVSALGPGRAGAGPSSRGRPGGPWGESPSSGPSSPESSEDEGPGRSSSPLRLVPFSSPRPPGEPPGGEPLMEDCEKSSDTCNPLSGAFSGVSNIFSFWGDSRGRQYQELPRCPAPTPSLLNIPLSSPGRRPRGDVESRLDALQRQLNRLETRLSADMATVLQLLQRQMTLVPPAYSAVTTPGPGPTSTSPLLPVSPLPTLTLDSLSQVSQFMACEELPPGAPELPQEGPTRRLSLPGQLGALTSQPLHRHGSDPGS

| SMILES | hERG current change (%, negative = inhibition) at 1uM |
| --- | --- |
| Cn1ccnc1C(O)c1ccccc1 (stereo not drawn) | 9.58% |
| Br.CCc1ccc(C(=O)CN2CCSC2=N)cc1 | -2.25% |
| Nc1nnc(SCC(=O)c2ccc([N+](=O)[O-])cc2)s1 | 5.75% |
| Nc1ccc(C(=O)N/N=C/c2cn(Cc3ccccc3F)c3ccccc23)cc1 | 15.6% |
| NC(=S)Nc1cccc(F)c1 | 8.41% |
| Cc1nc2c(F)c(F)c(C(F)(F)F)c(F)c2[nH]1 | 4.67% |
| Cn1cnc([N+](=O)[O-])c1Nc1ccccc1O | 10.2% |
| COc1ccc(S(=O)(=O)N2CCN(C(=O)CC(C)C)CC2)cc1 | 7.86% |
| CN(C)S(=O)(=O)Nc1ccccn1 | 10% |
| CCOC(=O)c1ccc(NC(=O)CCc2nnc3ccc(N4CCN(C)CC4)nn23)cc1 | 13.7% |
| CN1/C(=C\C(=O)c2cncc(Br)c2)C(C)(C)c2ccccc21 | 1.95% |
| CNC(=O)c1sc(-c2ccc(Cl)cc2)nc1C | 4.98% |
| Cc1ccc(C(=O)NCc2ccco2)cc1S(=O)(=O)Nc1cccc(C)c1C | -3.54% |
| O=C(O)CSc1nnc(COc2cccc3cccnc23)n1-c1ccc(Cl)cc1 | 9.7% |
| CN(CC(=O)N1CCN(Cc2ccccc2)CC1)S(=O)(=O)c1ccc(F)cc1 | -7.88% |
| Cc1ccc(Cn2ccc(NC(=O)c3cc4nc(-c5ccco5)cc(C(F)(F)F)n4n3)n2)cc1 | 3.18% |
| O=C(Cc1cccs1)Nc1cccc(-c2nc3cc4ccccc4cc3[nH]2)c1 | 12.1% |
| Br.O=C(Cn1c(NCCCO)nc2ccccc21)c1cccc(Br)c1 | 4.14% |
| c1cnc(-c2nnc3n2CCCCC3)cn1 | 15.1% |
| C=CCOc1ccc(Br)cc1CNCCO.Cl | 8.78% |
| CCOc1ccc(N2C(=O)CC(N(C)Cc3ccccc3)C2=O)cc1 (stereo not drawn) | 11.9% |
| COc1ccc(OCC(O)CNCc2ccco2)cc1 (stereo not drawn) | 3.44% |
| Cc1cccc(C)c1Nc1nnc(SCC(=O)Nc2sccc2C#N)s1 | -0.121% |

| SMILES | hERG current change (%, negative = inhibition) at 1uM |
| --- | --- |
| Cc1cc(=O)[nH]c(-n2[nH]c3c(c2=O)CCCC3)n1 | 9.61% |
| N#CCCn1c(=O)n(CCC#N)c2ccccc21 | 5.04% |
| CC(C)Cn1c(=O)c(C(=O)NCc2ccccn2)c(O)c2ccccc21 | 13.1% |
| O=C(c1ccco1)N1CCN(Cc2cc(=O)c(OCc3ccc(F)cc3)co2)CC1 | -5.67% |
| O=C(N/N=C/C=C\c1ccccc1[N+](=O)[O-])c1cc(-c2ccccc2)nc2ccccc12 | 9.06% |
| CCn1c(=O)cc(OCC(=O)N2CCN(c3cccc(C(F)(F)F)c3)CC2)c2ccccc21 | -8.43% |
| CC(c1ccccc1)C(Cc1nc2ccccc2[nH]1)c1nc2ccccc2[nH]1 (stereo not drawn) | 4.36% |
| Cc1cccc(N2CCN(C(=O)c3cccn4c(=O)c5c(C)c(C)sc5nc34)CC2)c1C | 16.7% |
| Cc1ccc(CNC(=O)COC(=O)c2ccc(S(=O)(=O)N3CCCC3)cc2)cc1 | 3.34% |
| Cc1ccc(S(=O)(=O)N=S(CC2CC2(Cl)Cl)CC2CC2(Cl)Cl)cc1 (stereo not drawn) | -0.132% |
| COc1ccccc1N1CCN(C(=O)c2cc3ccccc3[nH]2)CC1 | 10.1% |
| COc1ccc(CCN(C)C(=O)CSc2ncnc3sccc23)cc1OC | 14.1% |
| C/C(=N\Nc1ccc(F)cc1F)c1ccc(F)cc1 | 6.71% |
| Cc1cc(OCC(=O)N2CCOCC2)cc2oc(=O)c3ccccc3c12 | 7.05% |
| COc1cc(CCC(=O)NNC(=O)c2ccc(C)cc2)cc(OC)c1OC | 10.9% |
| O=C(NCCc1ccccc1)C1CCC(Cn2c(=O)c3ccccc3n(Cc3cccc(Cl)c3)c2=O)CC1 (stereo not drawn) | 13.5% |
| COc1cc(-c2[nH]nc3c2C(c2ccco2)C(C#N)=C(N)O3)cc(OC)c1OC (stereo not drawn) | 9.78% |
| Cc1ccc(N=C2NC(=O)S/C2=C\c2ccco2)cc1 | 10.2% |
| O=S1(=O)CC2SC(=S)N(Cc3ccccc3)C2C1 (stereo not drawn) | 9.7% |
| Cc1ccc(C)c(NC(=O)COC(=O)CC2c3ccccc3CCN2S(=O)(=O)c2ccc(F)cc2)c1 (stereo not drawn) | 20.3% |
| O=C(CCn1c(=O)c2cccn2c2cccnc21)NCc1cccc(Cl)c1 | 6.36% |
| COc1ccc(S(=O)(=O)N2CCCC(C(=O)N3CCOCC3)C2)cc1OC (stereo not drawn) | 18.6% |
